In publication PMC3424240:
These are yes or no findings as the source states them, for the method shown. Binding seen in cells or lysates may run through a third protein. Some entries that bind do so weakly or less than the wild type. For some assays here: Sequences can lack the tags named with a protein.

Protein sequences, listed by entry. Tags and fused reporters are not part of them. Lines headed by an entry give the natural chain unless they say otherwise; changes in a name come on top. Residues count along the entry.
UniProt O15047: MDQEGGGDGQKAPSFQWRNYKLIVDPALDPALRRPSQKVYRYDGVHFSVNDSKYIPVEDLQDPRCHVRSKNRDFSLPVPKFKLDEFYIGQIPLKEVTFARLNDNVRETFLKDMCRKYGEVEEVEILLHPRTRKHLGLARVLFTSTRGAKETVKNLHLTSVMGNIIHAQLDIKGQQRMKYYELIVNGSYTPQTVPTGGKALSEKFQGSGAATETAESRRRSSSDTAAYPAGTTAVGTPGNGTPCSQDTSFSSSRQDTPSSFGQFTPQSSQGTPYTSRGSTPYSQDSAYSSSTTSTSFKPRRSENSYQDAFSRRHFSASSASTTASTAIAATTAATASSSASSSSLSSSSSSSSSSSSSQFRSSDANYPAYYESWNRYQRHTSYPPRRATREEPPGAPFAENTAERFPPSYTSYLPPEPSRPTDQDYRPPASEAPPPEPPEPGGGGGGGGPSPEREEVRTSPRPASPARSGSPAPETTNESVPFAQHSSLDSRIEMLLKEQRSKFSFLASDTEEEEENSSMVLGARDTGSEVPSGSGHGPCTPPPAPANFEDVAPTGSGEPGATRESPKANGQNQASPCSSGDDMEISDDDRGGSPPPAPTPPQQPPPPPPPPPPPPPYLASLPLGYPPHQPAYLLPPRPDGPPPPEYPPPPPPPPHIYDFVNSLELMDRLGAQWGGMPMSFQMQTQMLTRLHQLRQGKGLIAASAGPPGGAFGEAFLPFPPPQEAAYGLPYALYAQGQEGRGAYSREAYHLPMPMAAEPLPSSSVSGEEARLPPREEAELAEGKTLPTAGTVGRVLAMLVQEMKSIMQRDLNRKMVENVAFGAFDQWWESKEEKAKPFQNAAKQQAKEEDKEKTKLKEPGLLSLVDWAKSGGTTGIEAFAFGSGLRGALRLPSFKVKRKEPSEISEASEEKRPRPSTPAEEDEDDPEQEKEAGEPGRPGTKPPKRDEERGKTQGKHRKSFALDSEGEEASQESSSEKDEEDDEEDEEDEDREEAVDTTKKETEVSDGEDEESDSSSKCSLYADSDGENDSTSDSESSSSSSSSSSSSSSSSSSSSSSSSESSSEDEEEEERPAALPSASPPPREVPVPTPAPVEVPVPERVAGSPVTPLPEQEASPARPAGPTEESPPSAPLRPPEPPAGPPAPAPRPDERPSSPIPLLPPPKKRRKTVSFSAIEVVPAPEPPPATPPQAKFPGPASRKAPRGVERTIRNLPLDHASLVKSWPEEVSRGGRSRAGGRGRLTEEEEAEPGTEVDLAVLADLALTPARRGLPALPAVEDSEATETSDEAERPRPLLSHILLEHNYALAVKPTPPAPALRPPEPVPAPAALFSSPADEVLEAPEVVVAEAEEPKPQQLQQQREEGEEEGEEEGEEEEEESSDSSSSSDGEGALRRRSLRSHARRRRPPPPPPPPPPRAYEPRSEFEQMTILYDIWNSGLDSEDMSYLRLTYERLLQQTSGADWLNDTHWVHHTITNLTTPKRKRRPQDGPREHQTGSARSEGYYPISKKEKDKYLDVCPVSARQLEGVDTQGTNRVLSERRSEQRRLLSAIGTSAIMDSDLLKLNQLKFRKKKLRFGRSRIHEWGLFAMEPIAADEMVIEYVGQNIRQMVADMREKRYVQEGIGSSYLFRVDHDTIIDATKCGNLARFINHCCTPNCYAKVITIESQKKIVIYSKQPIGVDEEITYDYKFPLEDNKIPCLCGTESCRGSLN
FLAG-Setd1a (aa 247–1408): residues 247-1408 of O15047
UniProt Q9CWW7: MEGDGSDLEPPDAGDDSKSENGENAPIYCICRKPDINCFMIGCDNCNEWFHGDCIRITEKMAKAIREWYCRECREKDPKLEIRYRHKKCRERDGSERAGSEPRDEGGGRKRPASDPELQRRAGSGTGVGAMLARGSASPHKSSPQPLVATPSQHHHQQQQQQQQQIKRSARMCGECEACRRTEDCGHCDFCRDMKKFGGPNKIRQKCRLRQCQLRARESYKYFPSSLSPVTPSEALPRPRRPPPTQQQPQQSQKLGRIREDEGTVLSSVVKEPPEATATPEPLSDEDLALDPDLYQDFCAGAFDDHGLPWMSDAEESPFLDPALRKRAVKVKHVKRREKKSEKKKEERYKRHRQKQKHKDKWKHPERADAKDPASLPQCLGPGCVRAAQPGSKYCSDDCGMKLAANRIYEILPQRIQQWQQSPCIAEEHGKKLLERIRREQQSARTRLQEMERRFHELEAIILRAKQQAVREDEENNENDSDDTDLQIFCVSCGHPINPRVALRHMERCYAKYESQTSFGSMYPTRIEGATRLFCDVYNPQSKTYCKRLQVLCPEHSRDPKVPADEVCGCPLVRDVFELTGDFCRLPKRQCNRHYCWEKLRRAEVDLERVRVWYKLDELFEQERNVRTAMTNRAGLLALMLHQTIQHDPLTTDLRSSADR
UniProt Q6UXN9: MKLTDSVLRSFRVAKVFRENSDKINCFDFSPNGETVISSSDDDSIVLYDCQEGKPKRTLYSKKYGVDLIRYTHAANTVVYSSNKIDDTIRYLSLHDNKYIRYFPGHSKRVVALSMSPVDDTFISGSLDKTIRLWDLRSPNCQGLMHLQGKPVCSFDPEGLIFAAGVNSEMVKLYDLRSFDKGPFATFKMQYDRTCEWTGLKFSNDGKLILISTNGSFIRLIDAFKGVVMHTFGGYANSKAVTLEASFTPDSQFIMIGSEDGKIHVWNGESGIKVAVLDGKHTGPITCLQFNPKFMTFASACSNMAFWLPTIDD
UniProt Q9P0U4: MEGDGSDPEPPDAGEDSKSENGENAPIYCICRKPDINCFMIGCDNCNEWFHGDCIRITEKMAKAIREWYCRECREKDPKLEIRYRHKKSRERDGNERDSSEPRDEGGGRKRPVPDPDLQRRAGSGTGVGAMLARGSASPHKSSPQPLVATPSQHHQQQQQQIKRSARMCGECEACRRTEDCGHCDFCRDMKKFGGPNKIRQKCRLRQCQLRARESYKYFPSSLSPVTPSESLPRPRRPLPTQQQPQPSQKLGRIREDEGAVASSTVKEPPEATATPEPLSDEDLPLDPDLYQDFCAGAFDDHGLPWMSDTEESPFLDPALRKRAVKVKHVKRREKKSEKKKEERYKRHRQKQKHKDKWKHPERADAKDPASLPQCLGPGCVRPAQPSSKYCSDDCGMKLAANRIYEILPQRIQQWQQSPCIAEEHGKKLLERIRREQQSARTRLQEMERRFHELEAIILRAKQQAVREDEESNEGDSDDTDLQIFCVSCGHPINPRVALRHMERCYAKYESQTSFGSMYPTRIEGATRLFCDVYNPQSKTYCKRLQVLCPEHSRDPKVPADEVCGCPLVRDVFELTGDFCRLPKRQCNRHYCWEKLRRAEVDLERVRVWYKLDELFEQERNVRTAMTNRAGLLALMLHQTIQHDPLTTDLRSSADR

Experiments:
[1] = molecular target: T1, Rbm15 of murine 6133 megakaryoblastic leukemic cells (mouse (endogenous in 6133)) (UniProt Q0VBL3); assay: co-IP; immunoprecipitation with antisera against Setd1b or Rbm15 from whole cell extracts of murine 6133 megakaryoblastic leukemic cells, Western blotting
T1 sequence: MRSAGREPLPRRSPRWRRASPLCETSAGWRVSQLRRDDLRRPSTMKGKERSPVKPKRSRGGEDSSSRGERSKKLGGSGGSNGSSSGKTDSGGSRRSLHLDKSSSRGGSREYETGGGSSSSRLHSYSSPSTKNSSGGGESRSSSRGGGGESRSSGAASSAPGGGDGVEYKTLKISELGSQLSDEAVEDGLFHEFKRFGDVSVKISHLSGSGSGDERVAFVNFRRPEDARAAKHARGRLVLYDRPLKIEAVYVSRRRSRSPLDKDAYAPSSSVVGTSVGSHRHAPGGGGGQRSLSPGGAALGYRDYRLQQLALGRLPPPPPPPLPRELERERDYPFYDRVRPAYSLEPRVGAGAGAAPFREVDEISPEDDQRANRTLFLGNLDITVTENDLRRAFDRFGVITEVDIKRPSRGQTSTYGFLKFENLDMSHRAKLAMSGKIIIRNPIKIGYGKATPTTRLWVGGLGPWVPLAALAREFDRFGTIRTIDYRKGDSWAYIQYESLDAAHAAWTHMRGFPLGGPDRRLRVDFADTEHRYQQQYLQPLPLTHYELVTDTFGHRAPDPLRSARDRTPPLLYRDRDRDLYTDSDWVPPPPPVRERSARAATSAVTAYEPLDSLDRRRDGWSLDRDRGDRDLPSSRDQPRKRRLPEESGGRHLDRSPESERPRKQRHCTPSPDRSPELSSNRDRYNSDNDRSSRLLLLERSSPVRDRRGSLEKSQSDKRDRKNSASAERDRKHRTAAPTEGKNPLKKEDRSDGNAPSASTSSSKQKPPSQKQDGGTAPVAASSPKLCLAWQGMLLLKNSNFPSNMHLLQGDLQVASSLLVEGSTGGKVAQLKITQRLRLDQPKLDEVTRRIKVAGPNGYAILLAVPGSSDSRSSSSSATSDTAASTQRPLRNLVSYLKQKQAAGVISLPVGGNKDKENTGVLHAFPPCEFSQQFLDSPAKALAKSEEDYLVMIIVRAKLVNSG

FLAG-Rbm15 (human) [2] = molecular target: T2, FLAG-Rbm15 (human) (UniProt Q96T37); assay: co-IP; FLAG immunoprecipitation from whole cell extracts of T-REx HEK293 lines induced with 1 µg/ml doxycycline for three days, in the presence or absence of RNase A (50 ug/ml, 15 min, 37°C)
T2 sequence: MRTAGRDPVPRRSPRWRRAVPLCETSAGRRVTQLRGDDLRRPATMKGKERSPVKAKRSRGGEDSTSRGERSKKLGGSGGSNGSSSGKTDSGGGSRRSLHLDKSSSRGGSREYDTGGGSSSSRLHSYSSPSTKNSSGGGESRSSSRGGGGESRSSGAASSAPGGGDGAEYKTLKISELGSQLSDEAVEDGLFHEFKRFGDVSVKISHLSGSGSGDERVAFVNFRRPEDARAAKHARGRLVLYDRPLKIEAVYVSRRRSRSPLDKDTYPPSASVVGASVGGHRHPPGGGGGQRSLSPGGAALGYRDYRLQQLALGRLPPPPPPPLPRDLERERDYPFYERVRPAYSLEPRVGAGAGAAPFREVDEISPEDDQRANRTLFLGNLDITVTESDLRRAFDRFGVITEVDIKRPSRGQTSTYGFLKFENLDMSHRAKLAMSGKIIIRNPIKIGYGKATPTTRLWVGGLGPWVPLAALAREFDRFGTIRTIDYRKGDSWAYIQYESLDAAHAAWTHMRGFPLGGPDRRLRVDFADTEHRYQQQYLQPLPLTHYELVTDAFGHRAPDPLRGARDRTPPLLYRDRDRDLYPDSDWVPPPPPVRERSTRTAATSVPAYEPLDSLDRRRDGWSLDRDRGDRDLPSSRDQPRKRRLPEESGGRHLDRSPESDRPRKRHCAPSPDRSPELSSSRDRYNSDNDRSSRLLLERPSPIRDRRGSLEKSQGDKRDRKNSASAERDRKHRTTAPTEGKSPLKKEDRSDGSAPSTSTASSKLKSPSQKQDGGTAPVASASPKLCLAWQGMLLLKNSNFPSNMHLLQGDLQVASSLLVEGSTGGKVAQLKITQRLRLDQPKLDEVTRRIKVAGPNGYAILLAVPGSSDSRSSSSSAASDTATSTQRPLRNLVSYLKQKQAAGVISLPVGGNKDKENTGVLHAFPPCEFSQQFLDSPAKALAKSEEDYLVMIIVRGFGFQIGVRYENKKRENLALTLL

[3] = molecular target: T3, FLAG-Rbm15 fragment aa 782 to 977 (human) (UniProt Q96T37); assay: co-IP; FLAG immunoprecipitation from whole cell extracts of transiently transfected HEK293 cells, Western blotting for endogenous partners
T3 sequence: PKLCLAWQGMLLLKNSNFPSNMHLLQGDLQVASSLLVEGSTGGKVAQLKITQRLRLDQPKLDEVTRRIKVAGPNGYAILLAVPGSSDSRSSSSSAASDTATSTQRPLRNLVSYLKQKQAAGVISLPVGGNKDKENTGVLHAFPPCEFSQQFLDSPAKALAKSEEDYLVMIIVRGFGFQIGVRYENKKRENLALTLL

[4] = molecular target: T4, FLAG-Setd1b (aa 225–1671) (human) (UniProt Q9UPS6); assay: co-IP; FLAG immunoprecipitation from nuclear extracts of transiently transfected HEK293 cells, Western blotting for endogenous partners
T4 sequence: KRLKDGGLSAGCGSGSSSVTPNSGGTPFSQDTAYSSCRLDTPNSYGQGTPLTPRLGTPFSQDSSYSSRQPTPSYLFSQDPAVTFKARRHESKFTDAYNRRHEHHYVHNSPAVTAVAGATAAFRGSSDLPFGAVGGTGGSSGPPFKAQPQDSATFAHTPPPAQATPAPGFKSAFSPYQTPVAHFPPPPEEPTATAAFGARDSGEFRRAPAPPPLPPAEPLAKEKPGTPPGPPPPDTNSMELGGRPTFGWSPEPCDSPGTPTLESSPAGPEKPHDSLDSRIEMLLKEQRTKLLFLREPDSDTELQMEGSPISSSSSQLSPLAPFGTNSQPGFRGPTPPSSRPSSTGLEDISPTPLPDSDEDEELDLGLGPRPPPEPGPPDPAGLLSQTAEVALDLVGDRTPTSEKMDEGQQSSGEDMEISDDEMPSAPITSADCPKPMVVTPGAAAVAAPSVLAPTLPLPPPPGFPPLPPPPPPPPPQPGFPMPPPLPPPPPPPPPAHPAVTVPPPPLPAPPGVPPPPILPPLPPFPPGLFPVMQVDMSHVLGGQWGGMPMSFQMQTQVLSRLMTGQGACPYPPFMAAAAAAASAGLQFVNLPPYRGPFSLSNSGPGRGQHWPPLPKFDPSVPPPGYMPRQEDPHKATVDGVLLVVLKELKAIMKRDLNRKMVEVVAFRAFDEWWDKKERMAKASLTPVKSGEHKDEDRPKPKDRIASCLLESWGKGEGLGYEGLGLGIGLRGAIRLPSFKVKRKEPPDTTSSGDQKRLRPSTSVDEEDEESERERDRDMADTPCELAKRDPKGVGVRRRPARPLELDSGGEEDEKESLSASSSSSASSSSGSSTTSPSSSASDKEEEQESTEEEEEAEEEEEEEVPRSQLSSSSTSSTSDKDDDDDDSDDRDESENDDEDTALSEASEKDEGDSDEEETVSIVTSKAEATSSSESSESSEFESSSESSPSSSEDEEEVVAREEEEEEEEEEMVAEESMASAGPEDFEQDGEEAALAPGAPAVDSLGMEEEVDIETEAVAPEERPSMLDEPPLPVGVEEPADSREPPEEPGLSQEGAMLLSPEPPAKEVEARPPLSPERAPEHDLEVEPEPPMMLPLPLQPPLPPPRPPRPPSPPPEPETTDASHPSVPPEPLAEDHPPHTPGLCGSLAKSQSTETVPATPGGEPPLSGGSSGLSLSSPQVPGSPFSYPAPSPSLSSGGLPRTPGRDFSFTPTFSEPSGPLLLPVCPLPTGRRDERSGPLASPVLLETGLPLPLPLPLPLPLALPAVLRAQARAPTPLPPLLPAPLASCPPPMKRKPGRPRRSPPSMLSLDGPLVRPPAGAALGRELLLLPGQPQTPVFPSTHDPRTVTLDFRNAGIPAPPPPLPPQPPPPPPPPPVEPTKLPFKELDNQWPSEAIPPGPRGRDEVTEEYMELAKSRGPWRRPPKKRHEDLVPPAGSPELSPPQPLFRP

FLAG-Rbm15 (human) [5] = molecular target: T2, FLAG-Rbm15 (human); assay: as above
[6] = molecular target: FLAG-Setd1a (aa 247–1408) (human) (UniProt O15047); assay: as above
[7] = molecular target: endogenous Setd1b (human (endogenous in HEK293)) (UniProt Q9UPS6); assay: co-IP; immunoprecipitation with antisera against Setd1b or Rbm15 from nuclear extracts of HEK293 cells (endogenous proteins), Western blotting
[8] = molecular target: T5, endogenous Rbm15 (human (endogenous in HEK293)) (UniProt Q96T37); assay: as above
T5 sequence: T2 sequence

[9] = molecular target: T6, FLAG-Setd1b fragment (1–867 aa) (human) (UniProt Q9UPS6); assay: co-IP; FLAG immunoprecipitation from whole cell extracts of transiently transfected HEK293 cells, Western blotting for endogenous partners
T6 sequence: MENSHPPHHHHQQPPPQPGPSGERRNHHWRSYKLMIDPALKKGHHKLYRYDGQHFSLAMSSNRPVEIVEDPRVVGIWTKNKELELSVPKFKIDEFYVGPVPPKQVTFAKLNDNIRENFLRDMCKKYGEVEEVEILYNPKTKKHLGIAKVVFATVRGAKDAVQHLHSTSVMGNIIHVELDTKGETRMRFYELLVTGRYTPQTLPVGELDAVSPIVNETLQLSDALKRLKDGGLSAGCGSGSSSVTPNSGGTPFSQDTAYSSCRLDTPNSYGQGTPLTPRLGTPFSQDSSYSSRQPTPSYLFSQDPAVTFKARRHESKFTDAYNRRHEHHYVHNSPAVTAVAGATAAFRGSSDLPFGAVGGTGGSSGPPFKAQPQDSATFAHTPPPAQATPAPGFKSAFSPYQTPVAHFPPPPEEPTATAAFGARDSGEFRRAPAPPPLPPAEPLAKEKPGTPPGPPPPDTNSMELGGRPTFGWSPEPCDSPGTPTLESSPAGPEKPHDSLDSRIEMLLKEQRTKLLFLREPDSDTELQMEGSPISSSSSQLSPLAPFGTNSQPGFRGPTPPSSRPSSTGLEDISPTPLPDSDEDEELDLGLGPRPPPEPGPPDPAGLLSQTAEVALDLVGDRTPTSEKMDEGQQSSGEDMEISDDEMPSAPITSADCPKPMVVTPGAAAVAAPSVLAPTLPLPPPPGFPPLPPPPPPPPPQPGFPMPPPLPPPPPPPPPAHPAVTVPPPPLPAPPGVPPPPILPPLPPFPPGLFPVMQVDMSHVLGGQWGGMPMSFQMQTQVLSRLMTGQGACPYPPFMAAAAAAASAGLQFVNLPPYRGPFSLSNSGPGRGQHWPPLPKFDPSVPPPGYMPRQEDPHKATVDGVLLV

binding [1]	binding (FLAG-Rbm15 (human) [5])	binding [9]	Substance	binding (FLAG-Rbm15 (human) [2])	binding [3]	binding [4]	binding [6]	binding [7]	binding [8]
binds	–	–	Cfp1 of murine 6133 megakaryoblastic leukemic cells (from UniProt Q9CWW7 1-660)	–	–	–	–	–	–
–	no binding	–	endogenous Setd1a (from UniProt O15047 1-1707)	–	–	–	–	no binding	no binding
–	binds	binds	endogenous Wdr82 (from UniProt Q6UXN9 1-313)	binds	binds	no binding	no binding	–	–

Substance	binding [1]	binding (FLAG-Rbm15 (human) [5])	binding [9]	binding (FLAG-Rbm15 (human) [2])	binding [3]	binding [4]	binding [6]	binding [7]	binding [8]
endogenous Cfp1 (from UniProt Q9P0U4 1-656)	–	binds	–	binds	binds	no binding	no binding	binds	binds
